Over roughly 2,300 sequences, “median log2 fold change of GCK-ALFA target abundance (FLAG IP / Myc IP barcode read proportion)” has its median near 0.095; the lowest 2% begin near -0.47. The list shows a part of the results.
B1: LC3A_3_1900 (protein)
chain: LEEEIEATLALLAAAGASEETLAAFREVAERLLERGYEEALRTLIEEMRELVDLPSELLLDFLREVLEVIETEDLSEEELIERIREIARLTLNEGEIEEL
B2: LC3A_free_46_2422 (protein)
chain: MTLEITIDFIAETKETAEKVSEEIVKLIKELAEKLGVEVEIEVKIEKLEDGTYYVEIKATIKGVTKEQAEQIENELTEKVEEIFEKYPGILGSIISFELK
B3: LC3A_3_1642 (protein)
chain: MEEEIEETLRLLKEAGASEETLEAFRRLAELLKERGFEEALRTLIEEVRELADLPSELLLDFLEEVLYVVETEDLDEEELIERIREIARVTRSEAEIIEL
B4: LC3A_free_46_2352 (protein)
chain: VEAKIEIDLLADDKEKLEKAVEEIIKKIKEIAKKYGLEVEINYEISKLEDGSYYAKIEITLKGEDLEDVKKAVNELINEIEEIAEKYGVSAVISYEIEDV
B5: LC3A_28_938 (protein)
chain: MTTEEDNERALEEAREAAERGEPVVVTLTVKGTDTEEDVENLIETMREIAEILKDVKGAAIVVDVEAGVPQEFIDKIADTGEEIEKKYPNINVIIALDED
B6: LC3A_3_1880 (protein)
chain: MEEARAATLAALKAAGQSEETIAAAERLFDLLAARGWEEAAETLIAELLELLGLPSELVLDFIEDVLETLETEDLSEEELIEEIERLARLARNEGEIEEL
B7: LC3A_free_8_2526 (protein)
chain: KNQALATAASAIIDEAEEKIVALLKEKGMSELDILEAELLLGSIIAEVISAVDKSIEDILKIIREGFEEIVEELSEVKEEVTEIMEEALKKIEEKAKELS
B8: LC3A_28_1052 (protein)
chain: SHIDEQIEKALKEAEEAKAKGEEALIELHIGKDANEEDVEKVLETIEKIAEITKDLPSVTIIVDVDNPNKEEVTKKIDEVGEELAKKYPNVTVIIALSEE
B9: LC3A_free_39_2193 (protein)
chain: SAAETEKAKAELLALAAEAGEEAKKLAEEIIKLIGEDLEKLKKLLEALKKAKEAGVDVLEVLKEALELAKELKKQGKSKEEIFEEVLELIEDAINLIPID
B10: LC3A_3_1533 (protein)
chain: MEEKIEEALERLREAGASEETIEAFERAFELLKERGYEEALETLIEEMEELIDAPDEILLWFAEEVLELIETSDLNEEELIEEIKRIARIAKNESEIEEL
B11: LC3A_59_2035 (protein)
chain: SAEAEAAAARVRERGPSVDVVAEVFREVLEKNGLDPELARDLVAALVAVLVEAGLITAEEGAAIRAEADAAIDRLTDVDELVSELRVIILDALLKKNELE
B12: LC3A_23_614 (protein)
chain: TWRITLIADLITEEEEVEAAIERARAAIAALLAEHADVILEARVEVEVEKLEDGRYFLSIRVTIVTNASREEAEALREALEAALDEALPGAVISSEVEEL
B13: LC3A_28_693 (protein)
chain: SAIDKQIAAARAEADAAIAAGEEATLTITVTADTTQADVDRIMAAIEEIAARMAASAKLNIIIDVEAGVPQEHLDRLADFGDALAARYPNVNIIIALDED
B14: LC3A_free_39_2279 (protein)
chain: SSEELEEVLKRLEELASTLSPEGQELLRRLVEIFENDLEALRRLAEALERAKAEGADMLEILRRALEIAERLKAEGKSLEEIGEEVIEEIEDMINLIPLD
B15: LC3A_28_988 (protein)
chain: SEDRERAERFLAEAREAAARGEARTLVLEVSKNATQEDIEYIVEVLREAARLLAGVPGASIVVDLESGVKQEHIDKLADAAEEIEEEYPNVTVIIALDED
B16: LC3A_13_343 (protein)
chain: MIKIEAETAEELLKKSKEALKANPGSTLEITVTVKDEEEADAVAEALKEIIDEAIKYGSKLNITLKGKRDLVLYTAVEVGSHIAEKIGKADVNVETVEEE
B17: LC3A_28_1112 (protein)
chain: SEIDKNLEKALKEAKEAAEKGEPVVVTITVKATDTQEDIDKIIEALYEIAEILKDVKDAAIIIDVDGKLPQEHLDKLADAAEEIEEKYPNITVIIALDEE
B18: LC3A_28_826 (protein)
chain: SAVEERIAAFREAAEAVKAAGEPGTLTLTIKSTDTLEEVEKIAEALLEEAEKLKDVPNVSIVIDLDGKISQEKLDILTDTAEKIEKKYPNISVIIALPEE
B19: LC3A_17_571 (protein)
chain: SAETEALVKKAVAALKKAEAFAAKIDAAAAKEVAALLKEVEKAAKTKSDLEIAKTIAEAMDKVANILDSLEGKDPDEASHLAMEMEGVAIEAESLALKLE

The binders below were run against MAP1LC3A, Q9H492 (assay: median log2 fold change of GCK-ALFA target abundance (FLAG IP / Myc IP barcode read proportion) (log2 ratio); each designed protein is fused to an ALFA-tag nanobody in HEK293 cells to bring the named protein to FLAG-tagged glucokinase (GCK); Myc marks an untargeted standard; higher = target protein stabilised (more abundant)). Conditions: target protein: 3xFLAG-MCP-GCK-ALFA reporter; HEK293 landing pad (RPLP).
Summary of the method: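 An ALFA-nanobody-fused binder library was recombined into HEK293 landing-pad cells and induced with 2 μg mL^−1 doxycycline. Cells were transfected with a plasmid expressing a FLAG-tagged target and a Myc-tagged standard. After 48 h, lysates underwent anti-FLAG and anti-Myc immunoprecipitation, and circular RNA barcodes were reverse transcribed, amplified and sequenced. Target abundance is the per-binder median log2 ratio of FLAG to Myc barcode read proportions. Barcodes needed ≥10^−7 proportion in both replicates, binders ≥3 barcodes per replicate, and a 10^−6 pseudocount was added; the two replicates were pooled.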

Row | Binder | median log2 fold change
1 | B1 | 0.107
2 | B2 | -0.134
3 | B3 | 0.0777
4 | B4 | 0.204
5 | B5 | -0.0104
6 | B6 | -0.067
7 | B7 | -0.0167
8 | B8 | -0.553
9 | B9 | 0.242
10 | B10 | -0.129
11 | B11 | 0.256
12 | B12 | -0.0837
13 | B13 | 0.211
14 | B14 | 0.0995
15 | B15 | 0.15
16 | B16 | 0.032
17 | B17 | 0.0117
18 | B18 | 0.348
19 | B19 | 0.185

Source: the supplement of paper PMC12632987
